PubChem BioAssay AID686978 (National Center for Advancing Translational Sciences (NCATS), 2013)
About 64,000 (15%) of roughly 420,000 compounds were called active. The shares of active, inactive and inconclusive entries below differ from those in the screen. Calls come from the whole dose curve; as a rule, active = well fitted inhibition curve with a large enough effect; inconclusive = small, poorly fitted or top-dose-only effect; inactive = flat fitted curve, though single readings scatter. No potency is given beside an inconclusive call; the fits are too rough.

Assay: qHTS for Inhibitors of human tyrosyl-DNA phosphodiesterase 1 (TDP1): qHTS in cells in absence of CPT; note: nearly all actives have a fitted effect of over 55% in size
Conditions: DT40 Tdp1-/- hTDP1 cells, no CPT, ATP luminescence, 48 h; activity change, negative = growth inhibition: at 46.2 µM (top of the series) unless noted
Outline: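 A cellular qHTS used chicken DT40 cells lacking endogenous Tdp1 but carrying stably transfected human TDP1. Compounds were applied without camptothecin, and cell growth kinetics were judged by ATP-dependent luminescence after ≥48 hr.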
% is set by controls: 0 for no effect and ±100 for the full control effect; potency is the fitted concentration of half-maximal effect; tags give direction and shape of the fitted curve.

**Q.** For NCCN(Cc1ccc(Cl)c(Cl)c1)c1ccc(Br)cn1, which Potency is on record?
**A.** The Potency was active: 3.98 µM.

**Q.** Which Potency does the source give for O=P(OC1CCCCC1)(OC1CCCCC1)C(Nc1ccccc1)c1cccnc1 (centres undefined) here?
**A.** The Potency was active: 14.6 µM.

**Q.** Which Potency does the source give for CC(C)CC(N)c1csc(NC(=O)c2cc(C(C)(C)C)nn2Cc2ccccc2)n1 (centres undefined) here?
**A.** The Potency was active: 8.2 µM.

**Q.** Which Potency does the source give for CN(C)C(=O)c1ccc(-c2nccc(Nc3ccc(F)cc3)n2)cc1 here?
**A.** Its Potency is “inactive”.

**Q.** With Cc1c(O)ccc(C(=O)COc2ccc(F)cc2)c1O as the compound, how does the Potency read?
**A.** The Potency was inconclusive [inhibitor, partial curve].

**Q.** With Cc1ccc(C)c(OCC(=O)N2CCN(c3ncccn3)CC2)c1 as the compound, how does the Potency read?
**A.** Its Potency is inconclusive [inhibitor, single point].

**Q.** Which Potency does the source give for COc1ccccc1NC(=O)c1ccc(NC(=O)CSc2nc(N)cc(=O)[nH]2)cc1 here?
**A.** The Potency was “inactive”.

**Q.** For CCOC(=O)Nc1ccc(S(=O)(=O)NC2CCCCC2)cc1, which Potency is on record?
**A.** The Potency was inconclusive [inhibitor, single point].

**Q.** For CCOc1[nH]n(-c2ccccc2)c(=O)c1C=Nc1ccc(C)cc1, which Potency is on record?
**A.** The Potency was “inactive”.

**Q.** For Cc1cc(-c2csc(NC(=O)c3ccc(=O)[nH]c3)n2)c(C)n1Cc1ccccc1, which Potency is on record?
**A.** The Potency was inconclusive [inhibitor, single point].

**Q.** With O=C(Nc1nnc(-c2ccncc2)s1)Nc1ccccc1F as the compound, how does the Potency read?
**A.** Its Potency is inconclusive [inhibitor, single point].

**Q.** With CC(C)CC1NC(=O)N(CC(=O)Nc2ccc3c(c2)OCCO3)C1=O (centres undefined) as the compound, how does the Potency read?
**A.** The Potency was “inactive”.

**Q.** With COc1ccc(C2c3[nH]c4ccccc4c3CCN2C(=O)c2cn3ccccc3n2)c(F)c1 (centres undefined) as the compound, how does the Potency read?
**A.** Its Potency is inconclusive [inhibitor, single point].

**Q.** Which Potency does the source give for CCOC(=O)C1=C(COC(=O)C2CC(=O)N(CCc3ccccc3)C2)NC(=O)NC1C (centres undefined) here?
**A.** The Potency was “inactive”.

**Q.** For O=C(CCN1C(=O)C2C3CC(C(Br)C3Br)C2C1=O)OCC(=O)c1cccc([N+](=O)[O-])c1 (centres undefined), which Potency is on record?
**A.** The Potency was “inactive”.

**Q.** For COc1ccc(/C=C/C(=O)Nc2sc3c(c2C(=O)NCc2cccnc2)CCCC3)cc1, which Potency is on record?
**A.** Its Potency is inconclusive [inhibitor, single point].

**Q.** With Cc1cccc(C(=O)NCCC(=O)Nc2ccc(C)c(F)c2)c1 as the compound, how does the Potency read?
**A.** Its Potency is inconclusive [inhibitor, single point].

**Q.** With COC(=O)c1sccc1NC(=O)c1cc2c(s1)CCCC2 as the compound, how does the Potency read?
**A.** The Potency was active: 10.3 µM.

**Q.** Which Potency does the source give for Cc1cc(C)c(N=C2CCCN2Cc2ccccc2)c(C#N)c1 here?
**A.** The Potency was inconclusive [inhibitor, partial curve].

**Q.** With CCOc1ccc(NC(=S)N(Cc2ccc(Cl)cc2)Cc2ccco2)cc1 as the compound, how does the Potency read?
**A.** The Potency was inconclusive [inhibitor, single point].

**Q.** With Cc1cccc(N2CCN(C(=O)Nc3cn(CC(C)C)c(=O)c4ccccc34)CC2)c1C as the compound, how does the Potency read?
**A.** The Potency was active: 7.31 µM.

**Q.** Which Potency does the source give for C(=C\c1nc2ccccc2o1)/c1ccc2c(c1)OCO2 here?
**A.** Its Potency is inconclusive [inhibitor, single point].

**Q.** For c1cc(OCCCN2CCCCC2)ccc1CN1CCCCC1, which Potency is on record?
**A.** Its Potency is “inactive”.

**Q.** For Cc1cc(S(=O)(=O)NC[C@H]2O[C@@H](n3ccc(N)nc3=O)[C@H](O)[C@@H]2O)c(C)s1, which Potency is on record?
**A.** The Potency was “inactive”.

**Q.** For COc1ccc(/C=C/C(=O)NC(=S)NNC(=O)c2ccco2)cc1, which Potency is on record?
**A.** The Potency was active: 20.6 µM.

**Q.** For Cc1ccc2c(c1)C(=O)C(=O)N2Cc1ccc(Cl)cc1, which Potency is on record?
**A.** Its Potency is active: 0.92 µM.

**Q.** For COc1ccccc1Cc1nc2ccccc2nc1SCC(=O)N(C)c1ccc(F)cc1, which Potency is on record?
**A.** The Potency was inconclusive [inhibitor, single point].

**Q.** With Cc1cccc(N2CCN(c3nc4ccc(Cl)cc4n4cnnc34)CC2)c1C as the compound, how does the Potency read?
**A.** The Potency was inconclusive [inhibitor, single point].

**Q.** For Oc1ccc(-c2cn3ccccc3n2)cc1, which Potency is on record?
**A.** The Potency was inconclusive [inhibitor, single point].

**Q.** With O=C(Nc1nc2ccccc2n1CCN1CCOCC1)c1cn(-c2ccccc2)nc1-c1ccccc1 as the compound, how does the Potency read?
**A.** The Potency was active: 18.4 µM.

**Q.** For CC(=C\C(=O)O)/C(=C/c1ccccc1)C(=O)O, which Potency is on record?
**A.** Its Potency is “inactive”.

**Q.** With CCc1nn(CC(=O)NCCCN(CC(C)C)CC(C)C)c(=O)c2cc3sc(C)cc3n12 as the compound, how does the Potency read?
**A.** Its Potency is inconclusive [inhibitor, single point].

**Q.** With CCN(CC(=O)NCCCN1CCOCC1)S(=O)(=O)c1ccc(Cl)cc1 as the compound, how does the Potency read?
**A.** The Potency was “inactive”.

**Q.** For Cc1nc(NCCc2ccccc2)c(C#N)c(C)c1[N+](=O)[O-], which Potency is on record?
**A.** Its Potency is “inactive”.

**Q.** With C=CCn1sc(=N)c(C#N)c1N as the compound, how does the Potency read?
**A.** The Potency was inconclusive [inhibitor, single point].

**Q.** With COCC(C)Nc1ccc(S(=O)(=O)N2CCCC2)cc1[N+](=O)[O-] (centres undefined) as the compound, how does the activity change, negative = growth inhibition read?
**A.** The activity change, negative = growth inhibition was inconclusive: -34.6% [inhibitor].

**Q.** For COc1ccccc1N1CCN(C(=O)Cn2cnc3onc(-c4ccc(F)cc4)c3c2=O)CC1, which Potency is on record?
**A.** Its Potency is active: 23.1 µM.

**Q.** Which Potency does the source give for CC1=CC(C)(C)NC(=S)N1CCO here?
**A.** Its Potency is “inactive”.

**Q.** For CN(C)C(=O)c1cccc(-c2cc(NC=O)c3ncc(-c4ccc(F)c(Cl)c4)n3c2)c1, which Potency is on record?
**A.** Its Potency is active: 23.1 µM.

**Q.** Which Potency does the source give for Cc1cccc(NC(=S)NC(=O)c2ccco2)n1 here?
**A.** The Potency was “inactive”.

**Q.** For O=C(C[C@H]1CC[C@@H](NS(=O)(=O)c2ccccc2)[C@@H](CO)O1)NCc1ccc(Cl)c(Cl)c1, which Potency is on record?
**A.** Its Potency is active: 20.6 µM.

**Q.** Which activity change, negative = growth inhibition does the source give for CC(C)c1ccc(S(=O)(=O)N2CCN(C(=O)[C@@H]3CCCN3C(=O)c3cccs3)CC2)cc1 here?
**A.** The activity change, negative = growth inhibition was inconclusive: -38% [inhibitor].

**Q.** For CCCCN(C)C(=O)C1CCCN(c2ncnc3onc(C)c23)C1 (centres undefined), which Potency is on record?
**A.** The Potency was active: 1.84 µM.

**Q.** For O=C(NC1CCS(=O)(=O)C1)OC1CCCCC1 (centres undefined), which Potency is on record?
**A.** The Potency was “inactive”.

**Q.** For Cc1cc(C)n(CC(O)Cn2c3ccc(Br)cc3c3cc(Br)ccc32)c(=O)n1 (centres undefined), which Potency is on record?
**A.** Its Potency is inconclusive [inhibitor, single point].

**Q.** With Cc1cc(OCC(=O)N(Cc2ccco2)C2CCS(=O)(=O)C2)cc(C)c1Cl (centres undefined) as the compound, how does the activity change, negative = growth inhibition read?
**A.** The activity change, negative = growth inhibition was inconclusive: -34.3% [inhibitor].

**Q.** With COC(=O)c1sc(=S)n(-c2cc(F)ccc2F)c1N as the compound, how does the Potency read?
**A.** The Potency was inconclusive [inhibitor, single point].

**Q.** With CCOc1cc(/C=N/NC(=O)CN2CCCCC2)ccc1OCc1cccc(Cl)c1 as the compound, how does the Potency read?
**A.** Its Potency is inconclusive [inhibitor, single point].

**Q.** For O=C(NCCc1ccccc1)c1[nH]c(C(F)(F)F)nc1-c1ccccc1, which Potency is on record?
**A.** The Potency was inconclusive [inhibitor, single point].
